Results published in the supplement of paper PMC4604168 (melanoma cell lines).
The other results are listed elsewhere or left out. Many values rest on one well or one pass, so single values are uncertain.

Key:
Assay in all cases: cell count relative to DMSO control; melanoma cells; higher = more viable cells
Conditions in all cases: library dose: low library concentration; 72 h
MeWo = test system: MeWo
RPMI7951 = test system: RPMI7951
RVH-421 = test system: RVH-421
SkMel28 = test system: SkMel28
SkMel30 = test system: SkMel30
SkMel5 = test system: SkMel5
UACC257 = test system: UACC257
UACC62 = test system: UACC62
WM115 = test system: WM115
WM1716 = test system: WM1716
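Further: cell number obtained by counting DAPI-stained nuclei in high-throughput microscope images with image analysis software, screen run in 1,536-well plates.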

Row | SMILES | cell count (MeWo) | cell count (RPMI7951) | cell count (RVH-421) | cell count (SkMel28) | cell count (SkMel30) | cell count (SkMel5) | cell count (UACC257) | cell count (UACC62) | cell count (WM115) | cell count (WM1716)
1 | COc1ccc(-c2ccc3c(N4CCOCC4)nc(N4C[C@@H](C)O[C@@H](C)C4)nc3n2)cc1CO + O=C1NC(=O)/C(=C/c2ccc(-c3ccc(F)cc3O)o2)S1 [AS252424] (first compound 0.02 µM, partner dose 1 µM) | 91.6% | 89.8% | 116% | 92.6% | 104% | 95.6% | 69.1% | 102% | 91% | 90.1%
2 | COc1ccc(-c2ccc3c(N4CCOCC4)nc(N4C[C@@H](C)O[C@@H](C)C4)nc3n2)cc1CO + c1cc(-c2cnn3cc(-c4ccc(OCCN5CCCCC5)cc4)cnc23)ccn1 [Dorsomorphin] (first compound 0.02 µM, partner dose 0.4 µM) | 93.7% | 84.8% | 103% | 116% | 92.6% | 87.6% | 76.3% | 77.6% | 101% | 111%
3 | Cn1cc(/C=C2\C(=O)Nc3cccnc32)c2ccccc21 + CC(C)CCN1c2nc(Nc3cc(F)c(O)c(F)c3)ncc2N(C)C(=O)C1C [BID1870] (first compound 0.4 µM, partner dose 0.2 µM) | 94.2% | 113% | 84.1% | 78.8% | 92.6% | 66.6% | 87.8% | 91.2% | 98.9% | 90.5%
4 | COC(=O)c1sccc1S(=O)(=O)Nc1ccc(Nc2ccccc2)cc1OC + CCCCCCCCCCCC1=C(O)C(=O)C=C(O)C1=O [Embelin] (first compound 1 µM, partner dose 1.2 µM) | 99.2% | 90.8% | 112% | 109% | 107% | 102% | 98% | 107% | 100% | 103%
5 | Cc1cc([N+](=O)[O-])ccc1NS(=O)(=O)c1cc(Cl)ccc1Cl + c1cc(-c2cnn3cc(-c4ccc(OCCN5CCCCC5)cc4)cnc23)ccn1 [Dorsomorphin] (first compound 1 µM, partner dose 0.4 µM) | 84.5% | 105% | 115% | 72.3% | 91.6% | 85.9% | 64.7% | 79.4% | 78% | 96.3%
6 | COC(=O)c1sccc1S(=O)(=O)Nc1ccc(Nc2ccccc2)cc1OC + O=S(=O)(c1ccccc1)N(CC(F)(F)F)c1ccc(C(O)(C(F)(F)F)C(F)(F)F)cc1 [T0901317] (first compound 1 µM, partner dose 1.4 µM) | 109% | 101% | 93% | 74.2% | 105% | 90.3% | 103% | 94.4% | 101% | 119%
7 | COc1ccc(-c2ccc3c(N4CCOCC4)nc(N4C[C@@H](C)O[C@@H](C)C4)nc3n2)cc1CO + O=c1cc(-c2cccc3c2Sc2ccccc2S3)oc(N2CCOCC2)c1 [KU55933] (first compound 0.02 µM, partner dose 1 µM) | 89.7% | 110% | 127% | 90% | 86.2% | 97.9% | 90.3% | 99.1% | 92.7% | 106%
8 | c1cc(-c2cnn3cc(-c4ccc(OCCN5CCCCC5)cc4)cnc23)ccn1 [Dorsomorphin] + COc1cc(N2CCC(N3CCN(C)CC3)CC2)ccc1Nc1ncc(Cl)c(Nc2ccccc2S(=O)(=O)C(C)C)n1 [NVP-TAE684] (first compound 0.4 µM, partner dose 0.08 µM) | 96.3% | 108% | 101% | 100% | 98.4% | 97% | 96.9% | 116% | 105% | 107%
9 | N#Cc1c(O)c2c(-c3ccc(-c4ccccc4O)cc3)csc2[nH]c1=O + COc1cc2ncnc(Nc3ccc(Oc4ccccc4)cc3)c2cc1OC [SrcI1] (first compound 2 µM, partner dose 2 µM) | 90.1% | 138% | 126% | 105% | 96.8% | 103% | 101% | 96% | 103% | 109%
10 | CCN(CC)CCCCNc1ncc2cc(-c3cc(OC)cc(OC)c3)c(NC(=O)NC(C)(C)C)nc2n1 + Cc1cc([N+](=O)[O-])ccc1NS(=O)(=O)c1cc(Cl)ccc1Cl [FH535] (first compound 0.1 µM, partner dose 1 µM) | 86.2% | 107% | 94.9% | 92.8% | 97.8% | 71.7% | 63.6% | 81.6% | 85.6% | 99.8%
11 | O=S(=O)(c1ccccc1)N(CC(F)(F)F)c1ccc(C(O)(C(F)(F)F)C(F)(F)F)cc1 + c1cc(-c2cnn3cc(-c4ccc(OCCN5CCCCC5)cc4)cnc23)ccn1 [Dorsomorphin] (first compound 1.4 µM, partner dose 0.4 µM) | 107% | 102% | 92.4% | 92.7% | 83% | 81.7% | 90.2% | 91.7% | 107% | 102%
12 | COc1ccc2c(c1)CCC1C2CCC2(C)C(NCCCCCCN3C(=O)C=CC3=O)CCC12 (stereo not given) + CC(C)CCN1c2nc(Nc3cc(F)c(O)c(F)c3)ncc2N(C)C(=O)C1C [BID1870] (first compound 0.4 µM, partner dose 0.2 µM) | 100% | 84.2% | 94.4% | 98.7% | 101% | 92.6% | 78.8% | 95.1% | 88.5% | 74.1%
13 | N#Cc1c(O)c2c(-c3ccc(-c4ccccc4O)cc3)csc2[nH]c1=O + CCCCCCCCCCCC1=C(O)C(=O)C=C(O)C1=O [Embelin] (first compound 2 µM, partner dose 1.2 µM) | 108% | 117% | 96.2% | 116% | 126% | 98.8% | 128% | 114% | 101% | 127%
14 | Cc1cc([N+](=O)[O-])ccc1NS(=O)(=O)c1cc(Cl)ccc1Cl + Cn1cc(/C=C2\C(=O)Nc3cccnc32)c2ccccc21 [GW441756] (first compound 1 µM, partner dose 0.4 µM) | 96.7% | 124% | 88.6% | 78.3% | 91.1% | 71.7% | 84.3% | 86.9% | 92.1% | 112%
15 | N#Cc1c(O)c2c(-c3ccc(-c4ccccc4O)cc3)csc2[nH]c1=O + c1cc(-c2cnn3cc(-c4ccc(OCCN5CCCCC5)cc4)cnc23)ccn1 [Dorsomorphin] (first compound 2 µM, partner dose 0.4 µM) | 99.3% | 94.4% | 94.4% | 85.5% | 95.8% | 96.2% | 88.5% | 89.9% | 103% | 112%
16 | Oc1cc(-c2nc(-c3ccccc3)[nH]c2-c2ccncc2)ccc1Cl + O=C1NC(=O)/C(=C/c2ccc(-c3ccc(F)cc3O)o2)S1 [AS252424] (first compound 0.2 µM, partner dose 1 µM) | 89.3% | 105% | 87.6% | 73.8% | 103% | 111% | 61.8% | 55.1% | 54.2% | 110%
17 | Oc1nc(-c2ccc(C(F)(F)F)cc2)nc2c1CSCC2 + CC(C)CCN1c2nc(Nc3cc(F)c(O)c(F)c3)ncc2N(C)C(=O)C1C [BID1870] (first compound 2 µM, partner dose 0.2 µM) | 97.2% | 111% | 75.5% | 81.6% | 97.9% | 79.7% | 69.8% | 99.9% | 89.1% | 64.2%
18 | COc1ccc(COc2ccc(Cc3cnc(N)nc3N)cc2OC)cc1 + Oc1nc(-c2ccc(C(F)(F)F)cc2)nc2c1CSCC2 [XAV939] (first compound 1 µM, partner dose 2 µM) | 103% | 90.8% | 89.1% | 91% | 121% | 87.2% | 105% | 83.2% | 102% | 74.7%
19 | O=C1NC(=O)/C(=C/c2ccc(-c3ccc(F)cc3O)o2)S1 + Cn1cc(/C=C2\C(=O)Nc3cccnc32)c2ccccc21 [GW441756] (first compound 1 µM, partner dose 0.4 µM) | 106% | 110% | 90.3% | 84.8% | 101% | 88.1% | 79.2% | 97.9% | 105% | 105%
20 | CCN(CC)CCCCNc1ncc2cc(-c3cc(OC)cc(OC)c3)c(NC(=O)NC(C)(C)C)nc2n1 + O=S(=O)(c1ccccc1)N(CC(F)(F)F)c1ccc(C(O)(C(F)(F)F)C(F)(F)F)cc1 [T0901317] (first compound 0.1 µM, partner dose 1.4 µM) | 104% | 119% | 63.3% | 78.7% | 89.5% | 96.9% | 97.2% | 116% | 88.9% | 104%
21 | COc1cc2ncnc(Nc3ccc(Oc4ccccc4)cc3)c2cc1OC + Cc1cc([N+](=O)[O-])ccc1NS(=O)(=O)c1cc(Cl)ccc1Cl [FH535] (first compound 2 µM, partner dose 1 µM) | 90.5% | 109% | 105% | 79.5% | 90.3% | 92.7% | 88.8% | 92.2% | 98.8% | 108%
22 | COC(=O)c1sccc1S(=O)(=O)Nc1ccc(Nc2ccccc2)cc1OC + COc1ccc2c(c1)CCC1C2CCC2(C)C(NCCCCCCN3C(=O)C=CC3=O)CCC12 [U73122] (first compound 1 µM, partner dose 0.4 µM) | 110% | 95.4% | 110% | 89.1% | 118% | 89% | 105% | 97.7% | 108% | 95%
23 | COC(=O)c1sccc1S(=O)(=O)Nc1ccc(Nc2ccccc2)cc1OC + CC(C)CCN1c2nc(Nc3cc(F)c(O)c(F)c3)ncc2N(C)C(=O)C1C [BID1870] (first compound 1 µM, partner dose 0.2 µM) | 90.6% | 113% | 85.3% | 68.6% | 75.4% | 91.8% | 83.9% | 96.5% | 99.9% | 92.4%
